Assay results reported in patent US20260209325A1, “SELECTIVE AND POTENT INHIBITORY ANTIBODIES OF MYOSTATIN ACTIVATION” (SCHOLAR ROCK, INC., priority 2022, published 2026).
Substitutions are numbered along the chain they refer to. Entries after “also recorded” stand apart in the source; their conditions may differ.

Assays:
[1] = terminal antibody exposure in serum, dexamethasone study; format: in vivo, mouse; conditions: serum of terminal bleed, dexamethasone-treated mice
Method: In a third experiment, antibody doses ranging from 0.3 mg/kg to 10 mg/kg were compared for their effectiveness in attenuating dexamethasone-induced atrophy. C57BL6 male mice (n=8) at 13-14 weeks of age were given normal drinking water or water containing dexamethasone at a concentration of 2.5 mg/kg to induce atrophy. Mice were dosed at day 1 and day 7 with vehicle (PBS), human IgG control (“hIgG”) or different doses of the test antibodies, as shown in Table 14 below. qNMR was used to measure muscle mass at days −1, 6 and 13. At day 14 the study ended, serum was collected and changes in body composition (qNMR), left and right gastrocnemius weight, and left and right quadriceps weight were determined. Circulating myostatin was measured in the serum of a terminal bleed taken at day 14. Statistical analysis was performed by ANOVA (Dunnett's multiple comparison test).
Antibody exposure and circulating total myostatin levels were measured in the serum collected from the terminal bleeds after treatment with Ab2, Ab130 and Ab109. The results are shown in Table 15 and Table 16 respectively.

[2] = molecular target: human pro-myostatin (Homo sapiens, UniProt O14793); assay: SEC-MALS binding stoichiometry; conditions: for Difference Observed vs. Predicted: < / > = observed below / above predicted
[3] = test system: total myostatin; assay: total serum myostatin, liraglutide study; format: in vivo, mouse; conditions: for Myostatin (total serum myostatin): terminal bleed serum, acidified; for total serum myostatin concentrations: liraglutide study, terminal bleed
Method: Levels of the antibodies' exposure to myostatin in the serum was measured by assaying for total myostatin in the serum (Lakshman (2009) Cellular Endocrinol 302:26). Terminal bleed serum samples were acidified at low pH (~2.5) to dissociate the antibody from its ligand, thus converting all forms of myostatin to the active growth factor. The samples were then neutralized and assayed for mature growth factor.

[4] = dexamethasone-induced muscle atrophy mouse model; format: in vivo; conditions: for gastrocnemius muscle weight / quadriceps muscle weight: dexamethasone treated mice, 0.3, 1, 3 or 10 mg/kg; for gastrocnemius muscle weight: FIG. 7C; for quadriceps muscle weight: FIG. 7D; for preservation of body weight: antibody 0.3-10 mg/kg, FIG. 7A; for preservation of lean mass: FIG. 7B, compared with Ab2 at 10 mg/kg
In short: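 Male C57BL6 mice (n=8, 13-14 weeks) received dexamethasone in drinking water (2.5 mg/kg) for 14 days, with vehicle (PBS), human IgG or antibody (0.3 to 10 mg/kg) dosed on days 1 and 7. Lean mass was measured by qNMR; at day 14, gastrocnemius and quadriceps weights and serum myostatin were recorded. ANOVA with Dunnett's test.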

[5] = test system: total myostatin; assay: circulating total myostatin in serum by ELISA after acidification, dexamethasone study; format: in vivo, mouse; conditions: for total circulating myostatin in serum: dexamethasone study, terminal serum, FIG. 8; for total circulating (serum) myostatin levels: dexamethasone-treated or liraglutide-treated animals, FIGS. 15A-B; for Myostatin (circulating total myostatin levels): serum of terminal bleed, dexamethasone-treated mice; for accumulation of myostatin in serum of dosed subjects, compared with apitegromab: statement in description
Method: An assay of the target engagement of the antibodies, i.e., a pharmacodynamic assay, can be performed by measuring the binding of the antibodies to myostatin. In some embodiments, myostatin is detected as described by Lakshman et al. (Mol. Cell. Endocrinol. (2009) 302(1): 26-32), the contents of which are incorporated herein in their entirety. In some embodiments, samples are treated with acid to convert all myostatin forms to the mature growth factor; a biotinylated capture antibody that is specific for mature myostatin is added to a streptavidin coated plate and detected with a labeled antibody that is specific for mature myostatin.
Briefly, serum samples were acidified at low pH (e.g., pH ~2.5) to dissociate the bound antibody from the immune complex and to convert all myostatin in the sample to the active form of growth factor (i.e., mature myostatin). Samples were then neutralized and assayed for the presence of mature myostatin on ELISA plates coated with anti-mature myostatin antibodies as capture reagents.

[6] = terminal antibody exposure, liraglutide study (pro myostatin plate ELISA); format: in vivo, mouse; conditions: for Exposure (terminal antibody exposure): terminal serum, high fat diet mice; for terminal antibody exposure: liraglutide study, FIG. 11H
Method: Pro myostatin was bound to a Costar plate at a concentration of 2 μg/ml then incubated in blocking solution. The antibody of interest was then added and its ability to bind pro myostatin was detected by horseradish peroxidase labeled anti IgG and a tetramethylbenzidine chromogenic substrate. Antibody exposure was measured as binding to the pro myostatin.

[7] = dose 0.3 mg/kg at day 1 and day 7
[8] = dose 1 mg/kg at day 1 and day 7
[9] = dose 3 mg/kg at day 1 and day 7
[10] = dose 10 mg/kg at day 1 and day 7
[11] = antibody 1 mg/kg/week + liraglutide 0.06 mg/kg q.d.
[12] = antibody 3 mg/kg/week + liraglutide 0.06 mg/kg q.d.
[13] = antibody 10 mg/kg/week + liraglutide 0.06 mg/kg q.d.
[14] = antibody 20 mg/kg/week + liraglutide 0.06 mg/kg q.d.

B1: Ab109: anti-pro/latent myostatin antibody; CDR sequences in Table 2d (antibody)
heavy: EVQLVESGGGLVQPGGSLRLSCAASGFTFSSYGMSWVRQAPGKGLELVASFTGSGGTYYPDSVKGRFTISRDNAKNSLYLQMNSLRAEDTAVYYCARDLLIRFLEWSHYYGMDVWGQGTTVTVSSASTKGPSVFPLAPCSRSTSESTAALGCLVKDYFPEPVTVSWNSGALTSGVHTFPAVLQSSGLYSLSSVVTVPSSSLGTKTYTCNVDHKPSNTKVDKRV[human IgG4 Fc with S228P (EU numbers) left out]
light: DIVMTQSPLSLPVTPGEPASISCRSSQSLLHSSGHNFLHWYLQKPGQSPQLLIYEVSNRVSGVPDRFSGSGSGTDFTLKISRVEAEDVGVYYCMQQTQYPPTFGGGTKVEIKRTVAAPSVFIFPPSDEQLKSGTASVVCLLNNFYPREAKVQWKVDNALQSGNSQESVTEQDSKDSTYSLSSTLTLSKADYEKHKVYACEVTHQGLSSPVTKSFNRGEC
- Exposure (terminal antibody exposure) [1, 7]: 2.8 µg/mL
- Exposure (terminal antibody exposure) [1, 8]: 104.9 µg/mL
- Exposure (terminal antibody exposure) [1, 9]: 67.3 µg/mL
- Exposure (terminal antibody exposure) [1, 10]: 470.2 µg/mL
- Observed Molecular Weight ([2]; Fab:pro-myostatin complex): 158.6 kDa
- Predicted Molecular Weight ([2]; Fab:pro-myostatin complex of the concluded stoichiometry): 187.53 kDa
- Difference Observed vs. Predicted ([2]; Fab:pro-myostatin complex): <28.93 kDa
- Stoichiometry (Fab:pro-myostatin) ([2]; concluded stoichiometry, Fab fragment): 2 to 1
- Stoichiometry (mAb:pro-myostatin) ([2]; concluded stoichiometry, full-length mAb): 1 to 2
- Observed Molecular Weight ([2]; mAb:pro-myostatin complex): 311.4 kDa
- Predicted Molecular Weight ([2]; mAb:pro-myostatin complex of the concluded stoichiometry): 317.3 kDa
- Difference Observed vs. Predicted ([2]; mAb:pro-myostatin complex): <5.9 kDa
- Myostatin (total serum myostatin) [3, 11]: 12.2 ng/mL
- Myostatin (total serum myostatin) [3, 12]: 4.7 ng/mL
- Myostatin (total serum myostatin) [3, 13]: 5.6 ng/mL
- Myostatin (total serum myostatin) [3, 14]: 4.5 ng/mL
- total serum myostatin concentrations [3]: reduced total serum myostatin concentrations compared to Ab2
- prevention of weight loss ([4]; dexamethasone treated mice, 1 mg/kg dose, FIG. 10A): equally as effective as the 10 mg/kg dose of Ab 2
- gastrocnemius muscle weight [4]: more efficacy at all four doses as compared to Ab2 at 3 mg/kg
- quadriceps muscle weight [4]: more efficacy at all four doses as compared to Ab2 at 3 mg/kg
- maintenance of body weight (percent change from baseline) ([4]; dexamethasone treated mice, antibody 3 mg/kg/day, FIG. 6A, 9A): to a greater extent than Ab2
- preservation of lean mass by qNMR ([4]; dexamethasone treated mice, antibody 3 mg/kg/day, FIG. 6B, 9B): to a greater degree than the 10 mg/kg/day Ab2 treatment
- preservation of gastrocnemius weight ([4]; dexamethasone treated mice, antibody 3 mg/kg/day, FIG. 6C, 9C): highly effective in preserving gastrocnemius weight
- preservation of body weight ([4]; dexamethasone treated mice): efficacious in preserving body weight; also recorded: improved efficacy compared to Ab2 at 10, 3, and 1 mg/kg
- body weight ([4]; dexamethasone treated mice, fourth experiment, FIG. 10A): prevented dexamethasone-induced weight loss
- lean mass by qNMR ([4]; dexamethasone treated mice, fourth experiment, FIG. 10B): attenuated the loss of lean mass; also recorded: greater efficacy at both 3 mg/kg and 10 mg/kg compared to either Ab2 or Ab133
- preservation of lean mass ([4]; dexamethasone treated mice): greater efficacy in preserving lean mass than Ab2
- preservation of quadriceps weight ([4]; dexamethasone treated mice, FIG. 9D): highly effective in preserving quadriceps weight
- total circulating myostatin in serum [5]: lower levels of total circulating myostatin as compared to Ab2 treatment
- total circulating (serum) myostatin levels [5]: decrease in serum myostatin
- Myostatin (circulating total myostatin levels) ([5]; dose 0.3 mg/kg): 159.6 ng/mL
- Myostatin (circulating total myostatin levels) ([5]; dose 1 mg/kg): 45.7 ng/mL
- Myostatin (circulating total myostatin levels) ([5]; dose 3 mg/kg): 48.4 ng/mL
- Myostatin (circulating total myostatin levels) ([5]; dose 10 mg/kg): BLOQ
- accumulation of myostatin in serum of dosed subjects, compared with apitegromab [5]: little or no accumulation of total myostatin
- Exposure (terminal antibody exposure) [6, 11]: 26.9 ng/mL
- Exposure (terminal antibody exposure) [6, 12]: 159.2 ng/mL
- Exposure (terminal antibody exposure) [6, 13]: 709.2 ng/mL
- Exposure (terminal antibody exposure) [6, 14]: 1435.5 ng/mL
- terminal antibody exposure [6]: higher exposure to their pro/latent myostatin ligand than Ab2

B2: Ab130: anti-pro/latent myostatin antibody; CDR sequences in Table 2d (antibody)
heavy: EVQLVESGGGLVQPGGSLRLSCAASGFTFTSYGMSWVRQAPGKGLELVASITGSGGETYYPDSVKGRFTISRDNAKNSLYLQMNSLRAEDTAVYYCARDLLVRFLEWSHYYGMDVWGQGTTVTVSSASTKGPSVFPLAPCSRSTSESTAALGCLVKDYFPEPVTVSWNSGALTSGVHTFPAVLQSSGLYSLSSVVTVPSSSLGTKTYTCNVDHKPSNTKVDKRV[human IgG4 Fc with S228P (EU numbers) left out]
light: B1 light with V56T, V60A, S61P, V63I, M94Q, Q96A, Y99F, P101R, T102P
- Exposure (terminal antibody exposure) [1, 7]: 1.2 µg/mL
- Exposure (terminal antibody exposure) [1, 8]: 4.7 µg/mL
- Exposure (terminal antibody exposure) [1, 9]: 93.1 µg/mL
- Exposure (terminal antibody exposure) [1, 10]: 488.4 µg/mL
- binding stoichiometry mAb:pro-myostatin ([2]; full-length mAb): 2:1 complex and a 1:2
- Myostatin (total serum myostatin) [3, 11]: 52.9 ng/mL
- Myostatin (total serum myostatin) [3, 12]: 41.5 ng/mL
- Myostatin (total serum myostatin) [3, 13]: 41.0 ng/mL
- Myostatin (total serum myostatin) [3, 14]: 42.4 ng/mL
- total serum myostatin concentrations [3]: reduced total serum myostatin concentrations compared to Ab2
- gastrocnemius muscle weight [4]: more efficacy at 3 mg/kg than both doses of Ab2
- quadriceps muscle weight [4]: more efficacy at 3 mg/kg than both doses of Ab2
- preservation of body weight ([4]; dexamethasone treated mice): efficacious in preserving body weight
- preservation of lean mass ([4]; dexamethasone treated mice): greater efficacy in preserving lean mass than Ab2
- total circulating myostatin in serum [5]: lower levels of total circulating myostatin as compared to Ab2 treatment
- total circulating (serum) myostatin levels [5]: increase in serum myostatin levels
- Myostatin (circulating total myostatin levels) ([5]; dose 0.3 mg/kg): 473.8 ng/mL
- Myostatin (circulating total myostatin levels) ([5]; dose 1 mg/kg): 567.3 ng/mL
- Myostatin (circulating total myostatin levels) ([5]; dose 3 mg/kg): 585.6 ng/mL
- Myostatin (circulating total myostatin levels) ([5]; dose 10 mg/kg): 325.2 ng/mL
- accumulation of myostatin in serum of dosed subjects, compared with apitegromab [5]: reduced accumulation of circulating latent myostatin
- Exposure (terminal antibody exposure) [6, 11]: 21.6 ng/mL
- Exposure (terminal antibody exposure) [6, 12]: 96.7 ng/mL
- Exposure (terminal antibody exposure) [6, 13]: 599.0 ng/mL
- Exposure (terminal antibody exposure) [6, 14]: 1418.2 ng/mL
- terminal antibody exposure [6]: higher exposure to their pro/latent myostatin ligand than Ab2
